About 120 (0.25%) of roughly 48,000 compounds were called active. Another 4% or so got no clear call; they are omitted. Calls come from the whole dose curve; as a rule, active = well fitted activation curve with a large enough effect; inconclusive = small, poorly fitted or top-dose-only effect, or another doubt; inactive = no such curve, though single readings can be large or run the other way. Some of the results follow.
Assay: Primary qHTS for Identification of Small Molecule Activators of Huntingtin-Antisense Promoter Activity; note: nearly all actives have a fitted effect of over 55% in size
Conditions: HEK293 HTT-AS promoter firefly luciferase reporter, 24 h; series mostly up to 57.5 µM; activity change, positive = activation: at the top concentration
Summary of the method: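 Luminescence was read after Dual-Glo reagent and a 10 min room-temperature incubation. Values were normalized to vehicle (0% activity) and zero RLU (-100% activity). Reporter HEK293 cells had been exposed to compounds (up to 57.5 uM final) for 24 h.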

Activity change, positive = activation, inactive:
COc1ccc(NC(=O)Cn2nnc(-c3nc(-c4ccncc4)no3)c2N)cc1OC 0.248%, Cc1oc(-c2ccc(Cl)cc2)nc1CSc1nc2ncccc2[nH]1 -24.2%, O=C(Nc1ccc2oc(-c3ccncc3)nc2c1)c1ccccc1Cl 6.92% [at 11.5 µM, percent change from vehicle, -100% = no light], CCc1ccccc1Nc1nn2c(=O)c3ccc(C(=O)NCCCOC(C)C)cc3nc2s1 -20.9%, COc1cccc(NC(=O)c2ccc(-c3nc(COc4ccccc4)c(C)o3)cc2)c1 -14%, O=C(OCc1cc(=O)n2nc(C3CCCCC3)sc2n1)c1ccc(F)cc1 -2.17%, CCOc1ccc(NC(=O)c2sc3nc4c(c(-c5ccc(OC)cc5)c3c2N)C(=O)CC(C)(C)C4)cc1 0.147%, CCOc1ccc(-n2cc(-c3ccccc3)c3c(N4CCN(c5ccccc5OC)CC4)ncnc32)cc1 -4.95%, COC(=O)c1c(NC(=O)/C(C#N)=C/c2ccccc2)sc2c1CCC2 -4.87%, COc1ccc(-c2noc(-c3cccnc3N3CCN(c4ccc(OC)cc4)CC3)n2)cc1 -13.3%, O=C(Nc1cccc(Cl)c1)c1ccc2c(c1)CCN2S(=O)(=O)c1ccccc1 -6.13%, CCCCN(CC)C(=O)CSc1c2c(nc3ccc(Cl)cc13)CCCC2 -31.4%, CCOCCCNC(=O)CN1C(=O)COc2ccc(S(=O)(=O)N3CCCC3)cc21 -13%, CCOC(=O)c1c(C)[nH]c(C)c1S(=O)(=O)N1CCCC(C(=O)NCc2ccc(Cl)cc2)C1 (stereo not given) -11.5%, COc1ccccc1Nc1cc(C(=O)NC2CCC(C)CC2)c2ccccc2n1 (stereo not given) -13.8%, CCn1c(CN2CCC(C)CC2)nc2cc(NC(=O)COc3ccc(Cl)c(C)c3)ccc21 -41.4%, COc1cc(OC)c(NC(=O)CCc2c(C)nc3ncnn3c2C)cc1Cl -7.78%, COc1ccc(-c2nc(CSCC(=O)NCCc3ccccc3)c(C)o2)cc1 -26.2%, N#Cc1c(C2CCNCC2)cc(-c2c(O)cccc2OCC2CC2)nc1N 8.94%, CCc1ccc(-n2c(SCc3ccccc3Cl)nc3[nH]ncc3c2=O)cc1 -5.03% [at 11.5 µM, percent change from vehicle, -100% = no light], COc1cccc(N2CCN(C(=O)c3cc4cc5cc(C)ccc5nc4s3)CC2)c1 8.5%, CCC(=O)N1c2ccccc2CC1C(=O)NCc1ccccc1Cl (stereo not given) -0.452%, Cc1cccc(NC(=O)CCn2cnnn2)c1C 1.04%, Cc1cccc(NC(=O)Cn2cc(C(=O)c3ccco3)c3ccccc32)c1 -16.1%, Cc1ccc(CNC(=O)c2ccc(Cn3c(=O)c4ccccc4n(CC(=O)Nc4ccc(C)cc4)c3=O)cc2)cc1 -12.2%
